Source: the CheMixHub viscosity set
Values joined by “and” are separate entries in the source; they are usually repeats but may differ in a detail not shown here. Identical values can stand only once. ± gives the uncertainty stated by the source. The source gives many values for each of these; only a part stands here.

Experiment: xn = mol fraction of the nth substance listed

CCO + O
viscosity (308.15 K, 101 kPa, x1 = 0.1722): 1.61 ± 0.018 mPa·s | viscosity (308.15 K, 101 kPa, x1 = 0.2): 1.71 ± 0.02 mPa·s | viscosity (308.15 K, 101 kPa, x1 = 0.2382): 1.707 ± 0.019 mPa·s | viscosity (308.15 K, 101 kPa, x1 = 0.24): 1.73 ± 0.02 mPa·s | viscosity (308.15 K, 101 kPa, x1 = 0.3661): 1.678 ± 0.018 mPa·s | viscosity (308.15 K, 101 kPa, x1 = 0.48): 1.529 ± 0.018 mPa·s | viscosity (308.15 K, 101 kPa, x1 = 0.4821): 1.504 ± 0.016 mPa·s | viscosity (308.15 K, 101 kPa, x1 = 0.61): 1.355 ± 0.017 mPa·s | viscosity (308.15 K, 101 kPa, x1 = 0.7918): 1.254 ± 0.013 mPa·s | viscosity (308.17 K, 101.33 kPa, x1 = 0.0332): 0.94 ± 0.0002 mPa·s | viscosity (308.17 K, 101.33 kPa, x1 = 0.0714): 1.202 ± 0.0002 mPa·s | viscosity (308.17 K, 101.33 kPa, x1 = 0.171): 1.629 ± 0.0002 mPa·s | viscosity (308.17 K, 101.33 kPa, x1 = 0.7355): 1.191 ± 0.0002 mPa·s | viscosity (313.15 K, 100 kPa, x1 = 0.0376): 0.783 ± 0.04 mPa·s | viscosity (313.15 K, 100 kPa, x1 = 0.0725): 0.995 ± 0.04 mPa·s | viscosity (313.15 K, 100 kPa, x1 = 0.1152): 1.198 ± 0.041 mPa·s | viscosity (313.15 K, 100 kPa, x1 = 0.163): 1.35 ± 0.041 mPa·s | viscosity (313.15 K, 101 kPa, x1 = 0.042): 0.927 ± 0.061 mPa·s | viscosity (313.15 K, 101 kPa, x1 = 0.095): 1.084 ± 0.012 mPa·s | viscosity (313.15 K, 101 kPa, x1 = 0.14): 1.352 ± 0.087 mPa·s | viscosity (313.15 K, 101 kPa, x1 = 0.1722): 1.386 ± 0.015 mPa·s | viscosity (313.15 K, 101 kPa, x1 = 0.25): 1.513 ± 0.097 mPa·s | viscosity (313.15 K, 101 kPa, x1 = 0.28): 1.49 ± 0.017 mPa·s | viscosity (313.15 K, 101 kPa, x1 = 0.37): 1.447 ± 0.017 mPa·s | viscosity (313.15 K, 101 kPa, x1 = 0.48): 1.344 ± 0.016 mPa·s and 1.354 ± 0.087 mPa·s | viscosity (313.15 K, 101 kPa, x1 = 0.4821): 1.305 ± 0.014 mPa·s | viscosity (313.15 K, 101 kPa, x1 = 0.61): 1.203 ± 0.015 mPa·s and 1.211 ± 0.078 mPa·s | viscosity (313.15 K, 101 kPa, x1 = 0.6358): 1.248 ± 0.013 mPa·s | viscosity (313.15 K, 101 kPa, x1 = 0.78): 1.01 ± 0.066 mPa·s | viscosity (313.15 K, 101 kPa, x1 = 0.7918): 1.119 ± 0.012 mPa·s | viscosity (313.15 K, 101 kPa, x1 = 0.8): 1.035 ± 0.013 mPa·s | viscosity (313.15 K, 101.33 kPa, x1 = 0.0399): 0.838 ± 0.0059 mPa·s | viscosity (313.15 K, 101.33 kPa, x1 = 0.042): 0.946 ± 0.024 mPa·s | viscosity (313.15 K, 101.33 kPa, x1 = 0.089): 1.043 ± 0.026 mPa·s | viscosity (313.15 K, 101.33 kPa, x1 = 0.14): 1.193 ± 0.03 mPa·s | viscosity (313.15 K, 101.33 kPa, x1 = 0.2048): 1.517 ± 0.011 mPa·s | viscosity (313.15 K, 101.33 kPa, x1 = 0.21): 1.393 ± 0.035 mPa·s | viscosity (313.15 K, 101.33 kPa, x1 = 0.3526): 1.384 ± 0.0097 mPa·s | viscosity (313.15 K, 101.33 kPa, x1 = 0.7404): 1.042 ± 0.0073 mPa·s | viscosity (313.16 K, 101.3 kPa, x1 = 0.61): 1.203 ± 0.031 mPa·s | viscosity (313.18 K, 101.33 kPa, x1 = 0.0332): 0.8381 ± 0.0002 mPa·s | viscosity (313.18 K, 101.33 kPa, x1 = 0.0714): 1.054 ± 0.0002 mPa·s | viscosity (313.18 K, 101.33 kPa, x1 = 0.1167): 1.255 ± 0.0002 mPa·s | viscosity (313.18 K, 101.33 kPa, x1 = 0.171): 1.401 ± 0.0002 mPa·s | viscosity (313.18 K, 101.33 kPa, x1 = 0.4194): 1.384 ± 0.0002 mPa·s | viscosity (313.18 K, 101.33 kPa, x1 = 0.5537): 1.25 ± 0.0002 mPa·s | viscosity (313.18 K, 101.33 kPa, x1 = 0.7355): 1.066 ± 0.0002 mPa·s | viscosity (318.15 K, 100 kPa, x1 = 0.033): 0.738 ± 0.047 mPa·s | viscosity (318.15 K, 100 kPa, x1 = 0.116): 0.981 ± 0.067 mPa·s | viscosity (318.15 K, 101 kPa, x1 = 0.04): 0.812 ± 0.008 mPa·s | viscosity (318.15 K, 101 kPa, x1 = 0.09): 1.015 ± 0.01 mPa·s | viscosity (318.15 K, 101 kPa, x1 = 0.095): 0.947 ± 0.01 mPa·s | viscosity (318.15 K, 101 kPa, x1 = 0.1): 1.189 ± 0.013 mPa·s | viscosity (318.15 K, 101 kPa, x1 = 0.1722): 1.205 ± 0.013 mPa·s | viscosity (318.15 K, 101 kPa, x1 = 0.2): 1.284 ± 0.014 mPa·s | viscosity (318.15 K, 101 kPa, x1 = 0.2382): 1.278 ± 0.014 mPa·s | viscosity (318.15 K, 101 kPa, x1 = 0.24): 1.307 ± 0.014 mPa·s | viscosity (318.15 K, 101 kPa, x1 = 0.3661): 1.276 ± 0.014 mPa·s | viscosity (318.15 K, 101 kPa, x1 = 0.48): 1.189 ± 0.014 mPa·s | viscosity (318.15 K, 101 kPa, x1 = 0.61): 1.081 ± 0.013 mPa·s | viscosity (318.15 K, 101 kPa, x1 = 0.6358): 1.108 ± 0.011 mPa·s | viscosity (318.15 K, 101 kPa, x1 = 0.8): 0.939 ± 0.012 mPa·s | viscosity (318.16 K, 101.33 kPa, x1 = 0.0332): 0.753 ± 0.0002 mPa·s | viscosity (318.16 K, 101.33 kPa, x1 = 0.0714): 0.9237 ± 0.0002 mPa·s | viscosity (318.16 K, 101.33 kPa, x1 = 0.1167): 1.095 ± 0.0002 mPa·s | viscosity (318.16 K, 101.33 kPa, x1 = 0.171): 1.216 ± 0.0002 mPa·s | viscosity (318.16 K, 101.33 kPa, x1 = 0.4194): 1.218 ± 0.0002 mPa·s | viscosity (318.16 K, 101.33 kPa, x1 = 0.5537): 1.108 ± 0.0002 mPa·s | viscosity (318.16 K, 101.33 kPa, x1 = 0.7355): 0.9555 ± 0.0002 mPa·s | viscosity (323.15 K, 100 kPa, x1 = 0.0376): 0.585 ± 0.04 mPa·s | viscosity (323.15 K, 100 kPa, x1 = 0.0725): 0.747 ± 0.04 mPa·s | viscosity (323.15 K, 100 kPa, x1 = 0.163): 1.004 ± 0.04 mPa·s | viscosity (323.15 K, 101 kPa, x1 = 0.04): 0.734 ± 0.008 mPa·s | viscosity (323.15 K, 101 kPa, x1 = 0.042): 0.798 ± 0.053 mPa·s | viscosity (323.15 K, 101 kPa, x1 = 0.089): 0.98 ± 0.064 mPa·s | viscosity (323.15 K, 101 kPa, x1 = 0.09): 0.907 ± 0.009 mPa·s | viscosity (323.15 K, 101 kPa, x1 = 0.095): 0.8377 ± 0.0093 mPa·s | viscosity (323.15 K, 101 kPa, x1 = 0.1): 1.05 ± 0.011 mPa·s | viscosity (323.15 K, 101 kPa, x1 = 0.14): 1.124 ± 0.073 mPa·s | viscosity (323.15 K, 101 kPa, x1 = 0.1722): 1.052 ± 0.013 mPa·s | viscosity (323.15 K, 101 kPa, x1 = 0.2): 1.124 ± 0.012 mPa·s | viscosity (323.15 K, 101 kPa, x1 = 0.21): 1.132 ± 0.012 mPa·s and 1.219 ± 0.079 mPa·s | viscosity (323.15 K, 101 kPa, x1 = 0.2382): 1.125 ± 0.013 mPa·s | viscosity (323.15 K, 101 kPa, x1 = 0.24): 1.146 ± 0.013 mPa·s | viscosity (323.15 K, 101 kPa, x1 = 0.25): 1.257 ± 0.081 mPa·s | viscosity (323.15 K, 101 kPa, x1 = 0.28): 1.155 ± 0.013 mPa·s and 1.226 ± 0.079 mPa·s | viscosity (323.15 K, 101 kPa, x1 = 0.3661): 1.121 ± 0.013 mPa·s | viscosity (323.15 K, 101 kPa, x1 = 0.37): 1.127 ± 0.013 mPa·s and 1.177 ± 0.076 mPa·s | viscosity (323.15 K, 101 kPa, x1 = 0.48): 1.062 ± 0.013 mPa·s and 1.11 ± 0.072 mPa·s | viscosity (323.15 K, 101 kPa, x1 = 0.4821): 0.9981 ± 0.01 mPa·s | viscosity (323.15 K, 101 kPa, x1 = 0.61): 0.968 ± 0.012 mPa·s and 0.998 ± 0.065 mPa·s | viscosity (323.15 K, 101 kPa, x1 = 0.6358): 0.9908 ± 0.011 mPa·s | viscosity (323.15 K, 101 kPa, x1 = 0.78): 0.853 ± 0.056 mPa·s | viscosity (323.15 K, 101 kPa, x1 = 0.7918): 0.9026 ± 0.0094 mPa·s | viscosity (323.15 K, 101 kPa, x1 = 0.8): 0.848 ± 0.011 mPa·s | viscosity (323.15 K, 101.33 kPa, x1 = 0.0399): 0.658 ± 0.0046 mPa·s | viscosity (323.15 K, 101.33 kPa, x1 = 0.042): 0.769 ± 0.019 mPa·s | viscosity (323.15 K, 101.33 kPa, x1 = 0.087): 0.834 ± 0.0058 mPa·s | viscosity (323.15 K, 101.33 kPa, x1 = 0.089): 0.808 ± 0.02 mPa·s | viscosity (323.15 K, 101.33 kPa, x1 = 0.14): 0.937 ± 0.024 mPa·s | viscosity (323.15 K, 101.33 kPa, x1 = 0.2048): 1.001 ± 0.007 mPa·s | viscosity (323.15 K, 101.33 kPa, x1 = 0.21): 1.066 ± 0.027 mPa·s | viscosity (323.15 K, 101.33 kPa, x1 = 0.28): 1.134 ± 0.029 mPa·s | viscosity (323.15 K, 101.33 kPa, x1 = 0.3526): 1.03 ± 0.0072 mPa·s | viscosity (323.15 K, 101.33 kPa, x1 = 0.6001): 0.891 ± 0.0062 mPa·s | viscosity (323.15 K, 101.33 kPa, x1 = 0.7404): 0.816 ± 0.0057 mPa·s
